# Results taken from the supplement of paper PMC8728848.
# Some of the results follow.
# B1: SSA (Sclerotinia sclerotiorum), A7XUK7 (protein)
# chain: MGFKGVGTYEIVPYQAPSLNLNAWEGKLEPGAVVRTYTRGDKPSDNAKWQVALVAGSGDSAEYLIINVHSGYFLTATKENHIVSTPQISPTDPSARWTIKPATTHQYEVFTINNKVSELGQLTVKDYSTHSGADVLSASAKTADNQKWYFDAK
# Assays:
# Experiment in all cases: glycan array binding signal (z-score within array); higher = stronger binding
# Details in all cases: glycan notation: IUPAC condensed, linker removed
# [1] = target: Fuc(a1-2)[Gal(a1-3)]Gal(b1-4)GlcNAc
# In short: (§1)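 Glycan array data came from 3228 arrays in the Consortium for Functional Glycomics database, and only arrays with an available protein sequence were kept. Glycan names were put into IUPAC-condensed notation, and columns mapping to the same glycan were averaged. The binding signal is a within-array Z-score, averaged across arrays of one protein sequence run at different concentrations or buffers and across linkers. A negative Z-score can be read as non-binding.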
# [2] = target: Fuc(a1-2)[Gal(a1-3)]Gal(b1-4)GlcNAc(b1-2)Man(a1-3)[Fuc(a1-2)[Gal(a1-3)]Gal(b1-4)GlcNAc(b1-2)Man(a1-6)]Man(b1-4)GlcNAc(b1-4)GlcNAc
# In short: as §1
# [3] = target: Fuc(a1-2)[Gal(a1-3)]Gal(b1-4)[Fuc(a1-3)]GlcNAc
# In short: as §1
# [4] = target: Fuc(a1-2)[Gal(a1-4)]Gal(b1-4)GlcNAc
# In short: as §1
# [5] = target: Fuc(a1-2)[GalNAc(a1-3)]Gal
# In short: as §1
# [6] = target: Fuc(a1-2)[GalNAc(a1-3)]Gal(b1-3)GlcNAc
# In short: as §1
# [7] = target: Fuc(a1-2)[GalNAc(a1-3)]Gal(b1-3)GlcNAc(b1-2)Man(a1-3)[Fuc(a1-2)[GalNAc(a1-3)]Gal(b1-3)GlcNAc(b1-2)Man(a1-6)]Man(b1-4)GlcNAc(b1-4)GlcNAc
# In short: as §1
# [8] = target: Fuc(a1-2)[GalNAc(a1-3)]Gal(b1-4)Glc
# In short: as §1
# [9] = target: Fuc(a1-2)[GalNAc(a1-3)]Gal(b1-4)GlcNAc
# In short: as §1
# [10] = target: Fuc(a1-2)[GalNAc(a1-3)]Gal(b1-4)GlcNAc(b1-2)Man(a1-3)[GalNAc(a1-3)[Fuc(a1-2)]Gal(b1-4)GlcNAc(b1-2)Man(a1-6)]Man(b1-4)GlcNAc(b1-4)GlcNAc
# In short: as §1
# [11] = target: Fuc(a1-2)[GalNAc(a1-3)]Gal(b1-4)GlcNAc(b1-3)Gal(b1-4)GlcNAc
# In short: as §1
# [12] = target: Fuc(a1-2)[GalNAc(a1-3)]Gal(b1-4)GlcNAc(b1-3)Gal(b1-4)GlcNAc(b1-3)Gal(b1-4)GlcNAc
# In short: as §1
# [13] = target: Fuc(a1-2)[GalNAc(a1-3)]Gal(b1-4)[Fuc(a1-3)]GlcNAc
# In short: as §1
# [14] = target: Fuc(a1-2)[GalNAc(a1-4)]Gal(b1-4)GlcNAc
# In short: as §1
# [15] = target: Fuc(a1-2)[GalNAc(b1-3)]Gal
# In short: as §1
# Fuc(a1-3)GlcNAc = target: Fuc(a1-3)GlcNAc
# In short: as §1
# [16] = target: Fuc(a1-3)[Gal(b1-4)]Glc6S
# In short: as §1
# [17] = target: Fuc(a1-3)[Gal(b1-4)]GlcNAc
# In short: as §1
# [18] = target: Fuc(a1-3)[Gal(b1-4)]GlcNAc(b1-2)Man(a1-3)[Fuc(a1-3)[Gal(b1-4)]GlcNAc(b1-2)Man(a1-6)]Man(b1-4)GlcNAc(b1-4)GlcNAc
# In short: as §1
# [19] = target: Fuc(a1-3)[Gal(b1-4)]GlcNAc(b1-2)Man(a1-6)[Gal(b1-4)GlcNAc(b1-2)Man(a1-3)]Man(b1-4)GlcNAc(b1-4)GlcNAc
# In short: as §1
# [20] = target: Fuc(a1-3)[Gal(b1-4)]GlcNAc(b1-3)Gal(b1-3)[Fuc(a1-4)]GlcNAc
# In short: as §1
# [21] = target: Fuc(a1-3)[Gal(b1-4)]GlcNAc(b1-4)Gal(b1-4)[Fuc(a1-3)]GlcNAc
# In short: as §1
# [22] = target: Fuc(a1-3)[Gal(b1-4)]GlcNAc(b1-4)Gal(b1-4)[Fuc(a1-3)]GlcNAc(b1-4)Gal(b1-4)[Fuc(a1-3)]GlcNAc
# In short: as §1
# [23] = target: Fuc(a1-3)[Gal(b1-4)]GlcNAc6S
# In short: as §1
# [24] = target: Fuc(a1-3)[Gal3S(b1-4)]Glc6S
# In short: as §1
# [25] = target: Fuc(a1-3)[Gal3S(b1-4)]GlcNAc
# In short: as §1
# [26] = target: Fuc(a1-3)[Gal3S(b1-4)]GlcNAc6S
# In short: as §1
# [27] = target: Fuc(a1-3)[GalNAc(b1-4)]GlcNAc
# In short: as §1
# [28] = target: Fuc(a1-3)[Neu5Ac(a2-3)]Gal(b1-4)GlcNAc(b1-3)GalNAc
# In short: as §1
# Fuc(a1-4)GlcNAc = target: Fuc(a1-4)GlcNAc
# In short: as §1
# Fuc(b1-3)GlcNAc = target: Fuc(b1-3)GlcNAc
# In short: as §1
# Gal(a1-2)Gal = target: Gal(a1-2)Gal
# In short: as §1
# Gal(a1-3)Gal = target: Gal(a1-3)Gal
# In short: as §1
# Gal(a1-3)Gal(b1-3)GlcNAc = target: Gal(a1-3)Gal(b1-3)GlcNAc
# In short: as §1
# Gal(a1-3)Gal(b1-4)Glc = target: Gal(a1-3)Gal(b1-4)Glc
# In short: as §1
# Gal(a1-3)Gal(b1-4)GlcNAc = target: Gal(a1-3)Gal(b1-4)GlcNAc
# In short: as §1
# [29] = target: Gal(a1-3)Gal(b1-4)[Fuc(a1-3)]GlcNAc
# In short: as §1
# [30] = target: Gal(a1-3)Gal(b1-4)[Fuc(a1-3)]GlcNAc(b1-2)Man(a1-3)[Gal(a1-3)Gal(b1-4)[Fuc(a1-3)]GlcNAc(b1-2)Man(a1-6)]Man(b1-4)GlcNAc(b1-4)GlcNAc
# In short: as §1
# Gal(a1-3)GalNAc = target: Gal(a1-3)GalNAc
# In short: as §1
# [31] = target: Gal(a1-3)[Gal(a1-4)]Gal(b1-4)GlcNAc
# In short: as §1
# Gal(a1-4)Gal(b1-4)Glc = target: Gal(a1-4)Gal(b1-4)Glc
# In short: as §1
# Gal(a1-4)Gal(b1-4)GlcNAc = target: Gal(a1-4)Gal(b1-4)GlcNAc
# In short: as §1
# [32] = target: Gal(a1-4)Gal(b1-4)GlcNAc(b1-3)Gal(b1-4)Glc
# In short: as §1
# Gal(a1-4)GlcNAc = target: Gal(a1-4)GlcNAc
# In short: as §1
# Gal(a1-6)Glc = target: Gal(a1-6)Glc
# In short: as §1
binder,measurement,setting,value
B1,glycan array binding signal (z-score),[1],-0.393
same,glycan array binding signal (z-score),[2],-0.306
same,glycan array binding signal (z-score),[3],-0.326
same,glycan array binding signal (z-score),[4],-0.198
same,glycan array binding signal (z-score),[5],0.691
same,glycan array binding signal (z-score),[6],-0.312
same,glycan array binding signal (z-score),[7],-0.432
same,glycan array binding signal (z-score),[8],-0.1
same,glycan array binding signal (z-score),[9],0.185
same,glycan array binding signal (z-score),[10],-0.122
same,glycan array binding signal (z-score),[11],-0.161
same,glycan array binding signal (z-score),[12],-0.027
same,glycan array binding signal (z-score),[13],-0.105
same,glycan array binding signal (z-score),[14],3.68
same,glycan array binding signal (z-score),[15],1.84
same,glycan array binding signal (z-score),Fuc(a1-3)GlcNAc,-0.377
same,glycan array binding signal (z-score),[16],0.041
same,glycan array binding signal (z-score),[17],-0.339
same,glycan array binding signal (z-score),[18],-0.284
same,glycan array binding signal (z-score),[19],-0.462
same,glycan array binding signal (z-score),[20],-0.343
same,glycan array binding signal (z-score),[21],-0.309
same,glycan array binding signal (z-score),[22],-0.223
same,glycan array binding signal (z-score),[23],0.017
same,glycan array binding signal (z-score),[24],0.048
same,glycan array binding signal (z-score),[25],-0.194
same,glycan array binding signal (z-score),[26],0.188
same,glycan array binding signal (z-score),[27],-0.391
same,glycan array binding signal (z-score),[28],-0.113
same,glycan array binding signal (z-score),Fuc(a1-4)GlcNAc,-0.338
same,glycan array binding signal (z-score),Fuc(b1-3)GlcNAc,-0.391
same,glycan array binding signal (z-score),Gal(a1-2)Gal,-0.226
same,glycan array binding signal (z-score),Gal(a1-3)Gal,-0.271
same,glycan array binding signal (z-score),Gal(a1-3)Gal(b1-3)GlcNAc,-0.253
same,glycan array binding signal (z-score),Gal(a1-3)Gal(b1-4)Glc,-0.277
same,glycan array binding signal (z-score),Gal(a1-3)Gal(b1-4)GlcNAc,-0.205
same,glycan array binding signal (z-score),[29],-0.238
same,glycan array binding signal (z-score),[30],-0.194
same,glycan array binding signal (z-score),Gal(a1-3)GalNAc,0.053
same,glycan array binding signal (z-score),[31],0.665
same,glycan array binding signal (z-score),Gal(a1-4)Gal(b1-4)Glc,-0.207
same,glycan array binding signal (z-score),Gal(a1-4)Gal(b1-4)GlcNAc,0.013
same,glycan array binding signal (z-score),[32],-0.048
same,glycan array binding signal (z-score),Gal(a1-4)GlcNAc,0.344
same,glycan array binding signal (z-score),Gal(a1-6)Glc,-0.254
